From the supplement of paper PMC11417369
± gives the standard deviation of the averaged measurements. Some of the results follow.

Test system: PfAP2-G AP2 domain (GST-tagged)
Assay: gcPBM binding intensity (ln(normalized median fluorescence intensity)); higher = stronger DNA binding
Procedure, shortened: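 An Agilent 4 × 180k array of primer-extended double-stranded 36-bp intergenic genomic probes, with negative controls, was incubated for 1 h with GST-tagged P. falciparum DNA-binding domains expressed in E. coli. Alexa488 anti-GST antibody detected bound protein, scanned at 488 nm. Binding intensity is the highest Masliner-normalised natural-log median intensity across replicate spots of either probe orientation.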

| Sequence | gcPBM binding intensity (ln) |
| --- | --- |
| TGTTTTAAACTAATTTGTACATAGTTATTTATATTT [XGTACX_site7196] | 10.7 ± 0.26 |
| AATTCTTTATTATATGCACACGTACATATAATATAT [CACACA_site8621] | 11.4 ± 0.98 |
| AAAAAATGTTATAAAAGTACATAATTTATCTACCAT [XGTACX_site3035] | 11.2 ± 0.81 |
| TGGGAAAAAATATATGCACACCCCCCAAAAAAAAAA [CACACA_site8696] | 11.6 ± 0.81 |
| TAACTTTGGAGGAGCTGTACGATTATTTTGATCCTT [XGTACX_site2514] | 11.3 ± 1 |
| AAAAAATTTCAAATAACACACACTAATATAAATATG [CACACA_site6783] | 10.1 ± 0.15 |
| TTTAAAAAATAATATTGTACTATTCTCCCAATTTCT [XGTACX_site7079] | 10.9 ± 0.59 |
| TTTTTATATAATTTAACACACATTTCATATAAAAAA [CACACA_site3103] | 9.975 ± 0.092 |
| ATGTGAAAATAAGACACACTCAAAAGGTTTATATTA [CACACA_site4595] | 9.81 ± 0.057 |
| ATATACTGTATGAAAGCACACATACTTATTACTAAC [CACACA_site9384] | 10.03 ± 0.078 |
| AAAAAATGAAAAAACTGTACGCAATTTTGTTTTTAT [XGTACX_site2299] | 11.7 ± 1.2 |
| AAGTTTTTTTTTATCACACACAAAAAAAAAAATATA [CACACA_site1362] | 10.2 ± 0.41 |
| CTATATATAACCCATGTGCACTTTTTATGTACAATA | 11.5 ± 1 |
| TCTTTCCTTATTAAAACACACAAATACATTATTTAA [CACACA_site2147] | 9.98 ± 0.18 |
| CCTTTTTCTACTTTCTCACACATATTAAGAATTATA [CACACA_site5621] | 10.3 ± 0.25 |
| AAAAAAAAAAAAAAGTGTACCTTCAAAATAATATTG [XGTACX_site2844] | 11.3 ± 0.49 |
| ATAAATATAAAACACACACACATATTATATATATAT [CACACA_site3064] | 10.1 ± 0.29 |
| TTTCTTCTTCAATGTTGTACTTTTCTCTTTTCTTAA [XGTACX_site1017] | 11.4 ± 0.73 |
| GTAGGTGTTTTTGGTTGTACATATAAATATATATAC [XGTACX_site3380] | 11.3 ± 0.8 |
| TTTTTTTTTTTTAATTGTACTTATTAAAAAAAGCAA [XGTACX_site8713] | 11.1 ± 0.81 |
| GTTCATAAAAATTTTTGTACCCATAAAATATTCCTC [XGTACX_site8611] | 11.2 ± 0.65 |
| TATAAACATTAAAGGTGTACAATTTAATTTCAATTT [XGTACX_site2944] | 11.3 ± 0.83 |
| GTTCTTCCTTGTAAATGTACAAATACAAAATGTTCC [XGTACX_site6738] | 10.8 ± 0.49 |

| Sequence | gcPBM binding intensity (ln) |
| --- | --- |
| TATTTTCATTATACTACTTCGAAGATACCCTTTTTT [CACACA_negctrl_site256] | 10.4 ± 0.3 |
| GGAAATTAACAGAACACAATGTAACAATTTCTAACA [CACACA_negctrl_site1250] | 9.88 ± 0.085 |
| GATATATATGTTCACACACACATGGAAATATATATA [CACACA_site4371] | 10.2 ± 0.2 |
| TTAAGATCCTAAAAAACACACAATTGCGAATAATAA [CACACA_site6005] | 10.3 ± 0.16 |
| ATATCATAAAAAATGTGTACATATATGAACATATAA [XGTACX_site2239] | 11.5 ± 0.64 |
| ATAAATTTTTTTTTTTTTTTTTTTTTTTTTTTTTTT [CACACA_negctrl_site508] | 11.2 ± 0.73 |
| ATTTTTTTCATAGACACACACAATATATCTGTTTCC [CACACA_site3023] | 10.12 ± 0.064 |
| TGTTAAAATTATTTGGTGCACTTGTTTTACCTTATT | 10.5 ± 0.45 |
| TATATTTATTATAACACACACATATAAATATTATAG [CACACA_site6726] | 10.04 ± 0.064 |
| TATGCACTTTAGGGCAGTACGTCAACATTATCTTTA [XGTACX_site3382] | 10.9 ± 0.59 |
| CCTCATACGAAATATAAACACACATACAATAAATAA [CACACA_site8620] | 10.05 ± 0.071 |
| TCTCATAGTAAACACACACACACACCCACATATATA [CACACA_site5034] | 10.3 ± 0.18 |
| CATTATTCTTTTAATATACACACTTTGTCTTTTCGC [CACACA_site2762] | 10.1 ± 0.17 |
| ATATTATTATATATAGTGCATATTATTATTTTTATT | 9.825 ± 0.049 |
| TTTTTTTTTTTTAATGCACACAATATATAATATGTA [CACACA_site3694] | 10 ± 0.49 |
| AAGATAAAATGATGCACACAAAAGGGTGTAATATAT [CACACA_site1706] | 10.13 ± 0.049 |
| GAAGTTTTCTTAAAGATGCACTTTTTAAAAATAAAA [GTGCAC_site9941] | 10.2 ± 0.42 |
| TCTTCTTTTTTTTTTTTGTATTATTATAAATATTAT [CACACA_negctrl_site1668] | 9.71 ± 0.071 |
| TGTACGTTTTATAACACACACACAAAAAAAAAAAAA [CACACA_site3875] | 10.8 ± 0.48 |
| TGTAATAATATTTATGTGCACATATATTAAACTATA [GTGCAC_site9584] | 10.5 ± 0.3 |
| TCATTTCACAGACACACACACACAAGATATTTCCTT [CACACA_site7774] | 10.1 ± 0.11 |
| TTTTTTTTTTTTCAATCACACATGTTTTAATTATTT [CACACA_site5532] | 9.685 ± 0.092 |
